Experimental data: PubChem BioAssay AID624417 (National Center for Advancing Translational Sciences (NCATS), 2012)
Among all 410,000 compounds or so, about 6,400 (1.6%) were called active. Inconclusive results, whose numbers are uncertain, are shown with a selection of clear calls. Calls follow the shape of the dose curve; as a rule, active = well fitted inhibition curve with a large enough effect; inconclusive = small, poorly fitted or top-dose-only effect; inactive = no such curve, though single readings can be large or run the other way. No potency is given beside an inconclusive call; the fits are too rough.

Target: Glucagon-like peptide 1 receptor (Homo sapiens) (UniProt P43220)
Assay: qHTS of GLP-1 Receptor Inverse Agonists (Inhibition Mode); also: nearly all actives have a fitted effect of over 55% in size
Details: HEK293 GLP-1R CRE-luciferase, luminescence, 24 h, GLP-1R form is constitutively active; series mostly up to 38.3 µM
Outline: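 Readout was luciferase luminescence, measured 12 min after detection reagent at room temperature. Beforehand, GLP-1R reporter HEK293 cells had sat 12 h, then received compounds for 24 hr at 37 deg C.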
Potency is read from the fitted curve at half-maximal effect; tags tell the direction and shape of the fitted curve.

Sequence of UniProt P43220 (P43220 whole entry, looked up): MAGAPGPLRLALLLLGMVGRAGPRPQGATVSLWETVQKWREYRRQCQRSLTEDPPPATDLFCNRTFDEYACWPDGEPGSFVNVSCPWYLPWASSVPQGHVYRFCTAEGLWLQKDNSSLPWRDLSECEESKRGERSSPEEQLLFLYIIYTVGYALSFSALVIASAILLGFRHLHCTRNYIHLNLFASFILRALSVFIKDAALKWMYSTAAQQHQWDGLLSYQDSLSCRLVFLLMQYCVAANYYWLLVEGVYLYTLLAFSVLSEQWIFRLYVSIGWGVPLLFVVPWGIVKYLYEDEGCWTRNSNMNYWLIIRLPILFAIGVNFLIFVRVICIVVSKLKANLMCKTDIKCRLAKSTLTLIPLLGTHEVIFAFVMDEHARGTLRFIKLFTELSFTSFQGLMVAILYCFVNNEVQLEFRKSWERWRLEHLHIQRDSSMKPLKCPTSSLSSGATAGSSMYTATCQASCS

Row | Compound | Potency
1 | COc1ccc(-c2cn(-c3ccc(C)cc3)c(S(=O)(=O)CC(=O)Nc3ccccc3)n2)cc1 | inconclusive [inhibitor, single point]
2 | COc1cccc2cc(C(=O)NCCc3c[nH]c4ccccc34)c(=O)oc12 | inconclusive [inhibitor, single point]
3 | O=C(Cc1ccc(S(=O)(=O)N2CCOCC2)s1)N1CCN(c2cccc(C(F)(F)F)c2)CC1 | inconclusive [inhibitor, single point]
4 | C/C(=N\NC(=O)c1n[nH]c2c1CCC2)c1ccco1 | active: 1.78 µM
5 | COc1cc2c3nnc(-c4ccc(F)cc4)c-3cn(Cc3cccc(F)c3)c2cc1OC | inactive
6 | COc1ccc([C@@H]2CC=C(C(=O)O)[C@H](c3cccc(Cl)c3)N2S(=O)(=O)c2ccc(Cl)cc2)cc1 | inconclusive [inhibitor, partial curve, poor fit]
7 | CCc1ccc(CNC(=O)C2CCN(S(=O)(=O)N3CCCC3)CC2)cc1 | inconclusive [inhibitor, partial curve, poor fit]
8 | O=C(CCNC(=O)c1ccc(Br)cc1)NC1CCCc2ccccc21 (stereo unspecified) | inconclusive [inhibitor, partial curve]
9 | C/C(=N\NC(=O)C1CCCC1)c1ccc(NC(=O)C(F)(F)F)cc1 | inactive
10 | Oc1ccccc1/C=N/NC(=S)NCCc1ccccc1 | inconclusive [inhibitor, partial curve, poor fit]
11 | O=C1c2ccccc2C(=O)N1CCCCNc1ccccc1 | inconclusive [inhibitor, single point]
12 | Cc1cc(C)c(-c2cc(NC(=O)CSc3nncn3C)n(-c3ccccc3)n2)cc1C | inconclusive [inhibitor, partial curve, poor fit]
13 | Cc1ccc(-c2ccc(CN3C(CC(C)C)C(=O)N(Cc4cn(CCC5OCCO5)nn4)CCS3(=O)=O)cc2)cc1 (stereo unspecified) | inconclusive [inhibitor, single point]
14 | OCCC1CN(CC#Cc2ccccc2)CCN1Cc1ccccc1F (stereo unspecified) | inconclusive [inhibitor, single point]
15 | CCN1CCc2c(sc(NC(=O)Nc3ccc(Cl)c(Cl)c3)c2C(N)=O)C1 | inconclusive [inhibitor, single point]
16 | Cc1ccc(S(=O)(=O)N2CCCC2C(=O)NCCc2nc3ccccc3[nH]2)cc1 (stereo unspecified) | inconclusive [inhibitor, partial curve, poor fit]
17 | O=C(COc1ccccc1)NC(=S)Nc1ccc(Br)cn1 | inconclusive [inhibitor, single point]
18 | COc1cccc(C(C(=O)NC2CCCCC2)N(C(=O)c2cccs2)c2ccc3c(c2)OCO3)c1 (stereo unspecified) | inconclusive [inhibitor, partial curve, poor fit]
19 | COc1ccc(-c2csc(=Nc3ccccc3)n2CCO)cc1 | inconclusive [inhibitor, single point]
20 | O=C(O)CSc1nc2ccc(Br)cc2[nH]1 | inactive
21 | Cn1nc(C(C)(C)C)cc1N1C(=O)CCC1(C)C(=O)Nc1ccc2ccccc2c1 (stereo unspecified) | inactive

Row | Compound | Potency
22 | CCc1cc(C(=O)N2CCCC(C(=O)c3cccc4ccccc34)C2)n(C)n1 (stereo unspecified) | inconclusive [inhibitor, partial curve, poor fit]
23 | CC(C)C[C@H]1CN([C@@H](Cc2ccc(O)cc2)CN2CCCC2CN2C(=S)NC[C@@H]2Cc2ccccc2)C(=S)N1CC1CCCCC1 (stereo partly specified) | inconclusive [inhibitor, single point]
24 | Cc1ccc(NC(=O)CSCC(=O)Nc2ccccc2N2CCCC2)cc1 | inconclusive [inhibitor, partial curve, poor fit]
25 | O=C(NCC(c1ccco1)N1CCN(c2ccc(F)cc2)CC1)c1cccs1 (stereo unspecified) | inconclusive [inhibitor, single point]
26 | CN(C)Cc1ccccc1C1(O)c2ccccc2CSc2ccccc21 (stereo unspecified) | inconclusive [inhibitor, partial curve, poor fit]
27 | O=c1oc2ccc3ccccc3c2cc1-c1nc2ccccc2o1 | inactive
28 | CCOc1nc(-c2ccccc2Cl)nc2ccccc12 | inconclusive [inhibitor, single point]
29 | O=C(C[C@H]1C[C@H](C(=O)N2CCOCC2)[C@@]2(CCC3CCCC3)c3[nH]c4cc(-c5ccco5)ccc4c3CCN2C1=O)NCCc1ccccn1 | inconclusive [inhibitor, single point]
30 | CCCCOc1ccc(C(=O)Nc2cccc(-n3cnnn3)c2)cc1OC | inconclusive [inhibitor, single point]
31 | COc1cc(-c2nc3ccc(Cl)cn3c2Nc2ccc3c(c2)OCO3)ccc1O | inconclusive [inhibitor, partial curve, poor fit]
32 | CCCC(O)(CCC)C(=O)NN(C(=O)OC)c1ccccc1 | inconclusive [inhibitor, partial curve]
33 | COC(=O)[C@@]12C[C@@H](CC(=O)NCC34CC5CC(CC(C5)C3)C4)C(=O)N(Cc3ccc4c(c3)OCO4)C1=CCC(C)(C)C2 | inconclusive [inhibitor, single point]
34 | Nc1nc(N)c(-c2cccc(C(F)(F)F)c2)c(Cc2cccc(C(F)(F)F)c2)n1 | inconclusive [inhibitor, single point]
35 | Nc1nn(-c2ccccc2)nc1C(=O)OCc1ccccc1Br | inactive
36 | CC1(C(=O)NS(=O)(=O)c2ccccc2Cl)CCN1C(=O)c1ccccc1CCc1ccccc1 (stereo unspecified) | inconclusive [inhibitor, partial curve, poor fit]
37 | Cc1ccccc1S(=O)(=O)Cc1ccc(C(=O)NCc2ccccc2Cl)o1 | inactive
38 | CCC(C(=O)NC1CCCC1)n1c(SCc2cccc(C)c2)nc2ccncc21 (stereo unspecified) | inconclusive [inhibitor, single point]
39 | Clc1ccc(CNC2CCN(Cc3ccccc3)CC2)cc1 | inactive
40 | COc1ccc(CNC(=O)C2CCN(S(=O)(=O)c3c(C)noc3/C=C/c3cccs3)CC2)cc1 | inactive
41 | FC(F)Oc1ccc(N=C2SCC3CCCCN23)cc1 (stereo unspecified) | inconclusive [inhibitor, single point]
42 | Brc1ccc2nc3c(n2c1)CCCC3 | inconclusive [inhibitor, single point]

Row | Compound | Potency
43 | NCCSc1c(-c2ccccc2)[nH]c2ccccc12 | inconclusive [inhibitor, single point]
44 | COc1cc2cc(C(=O)Nc3ccc4c(c3)OCCO4)[nH]c2cc1OC | inconclusive [inhibitor, full curve, poor fit]
45 | CC(=O)c1cccc(CN2CCC(C(=O)Nc3ccc(-c4cccc(C)c4)cc3)CC2)c1 | inconclusive [inhibitor, partial curve, poor fit]
46 | CN(C)C(=O)COC(=O)/C=C/c1cn(-c2ccccc2)nc1-c1cccs1 | inconclusive [inhibitor, single point]
47 | Cc1cc2oc3ccc(NCCC4CCCN4C)cc3c(=O)c2cc1C (stereo unspecified) | inconclusive [inhibitor, partial curve, poor fit]
48 | COc1cc2ccccc2cc1C(=O)Nc1cccc(-c2nc3ccccc3o2)c1 | inconclusive [inhibitor, single point]
49 | Cc1ccccc1OCC(=O)Nc1ccc(N2CCN(C(=O)c3ccco3)CC2)cc1 | inconclusive [inhibitor, partial curve, poor fit]
50 | COc1ccc(N2CCN(C(=O)c3cn(C)c4ccc(S(=O)(=O)N(C)C5CCCCC5)cc4c3=O)CC2)cc1 | inactive
51 | COc1ccccc1N1CCN(C(=O)c2c(-c3c(F)cccc3Cl)noc2C)CC1 | inconclusive [inhibitor, single point]
52 | O=C(Cn1cc(S(=O)(=O)N2CCN(c3ccccc3F)CC2)c2ccccc2c1=O)NCCCN1CCCCCC1 | inconclusive [inhibitor, partial curve, poor fit]
53 | Cc1ccc2c(c1)-c1c(cnn1CC(=O)N(Cc1ccco1)C1CCCCC1)CO2 | inconclusive [inhibitor, partial curve, poor fit]
54 | COc1cc2nc(N(C)C)nc(N)c2cc1OC | inconclusive [inhibitor, single point]
55 | Clc1ccc(-c2nc3ccc(Br)cn3c2Cc2cccc(Cl)c2)cc1 | inconclusive [inhibitor, single point]
56 | CCCC[C@@H](CNC)NC[C@H](Cc1ccc(O)cc1)NCCc1ccc(OCC)cc1 | inconclusive [inhibitor, single point]
57 | COc1ccc(S(=O)(=O)Cc2ccc(C(=O)N3CCN(c4cc(C)ccc4C)CC3)o2)cc1 | inconclusive [inhibitor, single point]
58 | Cc1cc(C)c2cc(C(=O)N3CCC(Cc4ccccc4)CC3)[nH]c2c1 | inconclusive [inhibitor, single point]
59 | Cc1ccc(C)c(CSc2nnc(-c3cccs3)n2Cc2ccco2)c1 | inconclusive [inhibitor, partial curve, poor fit]
60 | CCOc1ccc(NC(=O)CN2CCN(c3ccc(F)cc3)CC2)cc1 | inconclusive [inhibitor, partial curve, poor fit]
61 | CCC1Sc2ccc(S(=O)(=O)Nc3cc(OC)cc(OC)c3)cc2NC1=O (stereo unspecified) | inconclusive [inhibitor, single point]
